# Results reported in PubChem BioAssay AID1768 (National Center for Advancing Translational Sciences (NCATS), 2009).
# Screen size: about 270,000 compounds; about 620 (0.23%) were called active. This list was built around the results that the source calls inconclusive (neither active nor inactive); the mix of calls is not that of the screen. The call rests on the fitted dose curve; in most records, active means well fitted inhibition curve with a large enough effect in the polarisation, with a control signal flat (not every such curve was filed as active); inconclusive means small, poorly fitted or top-dose-only effect, or effect the other way, or a change in a side signal; inactive means no such curve, though single readings can be large or run the other way; the % refers to the polarisation. Potencies beside an inconclusive call are fits to weak or partial responses and may not hold up. “Side channel” marks fits to a control or component signal instead of the main read-out.
# Biological target: Menin (Homo sapiens) (UniProt O00255)
# Chain of UniProt O00255 (O00255 whole entry, looked up): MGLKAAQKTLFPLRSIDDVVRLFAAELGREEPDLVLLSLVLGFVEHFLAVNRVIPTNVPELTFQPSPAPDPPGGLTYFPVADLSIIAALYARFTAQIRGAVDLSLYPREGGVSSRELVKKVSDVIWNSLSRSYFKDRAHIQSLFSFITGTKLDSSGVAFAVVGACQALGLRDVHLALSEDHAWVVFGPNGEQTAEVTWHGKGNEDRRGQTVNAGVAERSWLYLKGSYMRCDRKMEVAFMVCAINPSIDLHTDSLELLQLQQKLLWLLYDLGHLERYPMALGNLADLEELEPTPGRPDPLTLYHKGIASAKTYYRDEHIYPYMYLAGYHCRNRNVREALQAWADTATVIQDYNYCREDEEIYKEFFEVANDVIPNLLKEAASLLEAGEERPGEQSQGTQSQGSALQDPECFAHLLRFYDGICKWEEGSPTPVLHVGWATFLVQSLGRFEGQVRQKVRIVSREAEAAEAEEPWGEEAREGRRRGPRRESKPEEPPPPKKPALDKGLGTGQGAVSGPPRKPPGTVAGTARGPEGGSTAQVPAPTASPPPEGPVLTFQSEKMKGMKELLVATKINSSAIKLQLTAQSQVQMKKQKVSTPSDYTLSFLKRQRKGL
# Assay: qHTS Assay for Inhibitors Targeting the Menin-MLL Interaction in MLL Related Leukemias: Competition With Texas Red Labeled MLL-derived Mutant Peptide; on FP activity change, negative = inhibition: % of control where 0% means no effect
# Settings: fluorescence polarization; FP activity change, negative = inhibition: at 61.6 µM (top of the series)
# Potency means the concentration at half of the fitted maximal effect; tags describe the fitted curve by direction and shape or compound fluorescence and quenching.
Compound,Potency,"FP activity change, negative = inhibition"
Cc1ccc(CNC(=O)CCc2nnc(Cc3ccc(-c4ccccc4)cc3)o2)o1,"inconclusive: 17.8 µM [fluorescent, side channel, partial curve]",–
O=C(COC(=O)c1ccc(O)cc1)Nc1ccc(Cl)cc1,"inconclusive: 28.2 µM [quencher, side channel, partial curve]",–
COC(=O)C1C2CC3c4[nH]c5cc(OC)ccc5c4CCN3CC2CC(OC(=O)c2cc(OC)c(OC)c(OC)c2)C1OC (stereo not drawn),inactive,–
Cc1nn(Cc2ccc(F)cc2)c(C)c1NC(=O)C1c2ccccc2Oc2ccccc21,"inconclusive: 8.91 µM [inhibitor, partial curve, poor fit]",–
CC1CN(C(=O)c2cc3c(=O)n4ccccc4nc3s2)CC(C)O1 (stereo not drawn),–,inactive: -15.7%
C[C@@H]1[C@H](O)[C@@H](C)/C=C/C=C/C=C/C=C/C=C/C=C/C=C/[C@H](O[C@@H]2O[C@H](C)[C@@H](O)[C@H](N)[C@@H]2O)C[C@@H]2O[C@](O)(C[C@@H](O)C[C@@H](O)[C@H](O)CC[C@@H](O)C[C@@H](O)CC(=O)O[C@H]1C)C[C@H](O)[C@H]2C(=O)O,–,inactive: 3.64%
COCCNC(=O)c1c(N)sc2c1CCCC2,"inconclusive: 39.8 µM [inhibitor, single point]",–
COc1ccc(/C=N/N=C2/NC(=O)C(c3ccccc3)S2)c(OC)c1 (stereo not drawn),"inconclusive: 11.2 µM [quencher, side channel, partial curve]",–
O=C(CCn1cccc1)NCc1ccc(Cl)cc1,"inconclusive: 3.98 µM [quencher, side channel, full curve, poor fit]",–
CC(=O)Nc1ccc2nc(NC(=O)c3ccc([N+](=O)[O-])o3)sc2c1,"inconclusive: 28.2 µM [quencher, side channel, single point]",–
O=C(N/N=C/c1cccs1)c1ccc(NC(=O)c2ccccc2Cl)cc1,"inconclusive: 39.8 µM [inhibitor, single point]",–
CCN(CC)CCN(C(=O)CCOc1ccccc1)c1nc2c(F)cc(F)cc2s1,"inconclusive: 39.8 µM [fluorescent, side channel, single point]",–
Cc1ccc([N+](=O)[O-])cc1NC(=O)Cc1cccs1,"inconclusive: 28.2 µM [quencher, side channel, partial curve]",–
Cc1cccc2cc(C#N)c(SCC(=O)Nc3ccccc3N3CCOCC3)nc12,"inconclusive: 25.1 µM [inhibitor, partial curve]",–
Cc1ccc(NC(=O)NC2CCN(S(=O)(=O)c3ccc(F)cc3)CC2)cc1,"inconclusive: 31.6 µM [quencher, side channel, single point]",–
COc1ccc(C(=O)N2CCc3cc(OC)c(OC)cc3C2c2ccc(OC)c(OC)c2)cc1OC (stereo not drawn),"inconclusive: 22.4 µM [inhibitor, partial curve]",–
O=C(C1=C[C@@H](c2ccccc2)C[C@@H](OCc2ccc(CO)cc2)O1)N1CCN(Cc2ccc3c(c2)OCO3)CC1,"inconclusive: 2.82 µM [fluorescent, side channel, full curve]",–
O=C(O)CN1C(=O)/C(=C\c2cc(Br)ccc2OCc2ccc(F)cc2)SC1=S,"inconclusive: 39.8 µM [quencher, partial curve]",–
Cn1cnnc1SCC(=O)Nc1sc2c(c1C(N)=O)CCC2,"inconclusive: 25.1 µM [quencher, side channel, single point]",–
C=CCOc1ccccc1CN1CCC(CO)(CCOc2ccccc2)CC1,"inconclusive: 20 µM [fluorescent, side channel, partial curve]",–
NC(=O)c1ccc(C(=O)N/N=C/c2cccc(Oc3ccccc3)c2)cc1,"inconclusive: 39.8 µM [fluorescent, side channel, single point]",–
COc1ccc(NC(=O)NNC(=O)C(O)(c2ccccc2)c2ccccc2)cc1,"inconclusive: 10 µM [quencher, side channel, partial curve]",–
Cc1n[nH]c(=O)nc1NCc1ccco1,"inconclusive: 39.8 µM [inhibitor, single point]",–
CCOC(=O)Cc1csc(NC(=O)c2sc3nc4c(C)cc(C)cc4cc3c2N)n1,"inconclusive: 12.6 µM [quencher, side channel, partial curve]",–
O=C(/C=C/c1ccco1)NC(=S)Nc1cc(-c2nc3ccccc3s2)ccc1Cl,"inconclusive: 3.55 µM [quencher, side channel, partial curve]",–
COc1cccc(/C=N/NC(=O)c2c(-c3ccccc3)noc2C)c1O,"inconclusive: 35.5 µM [quencher, side channel, single point]",–
Cc1ccc(S(=O)(=O)Nc2ccc(NC(=O)c3ccc(F)cc3)cc2)cc1,"inconclusive: 10 µM [quencher, side channel, partial curve]",–

Compound,Potency,"FP activity change, negative = inhibition"
COCCn1c(-c2ccco2)nc2nc3ccccc3nc21,"inconclusive: 7.08 µM [inhibitor, single point]",–
CCC(C)(C)n1nnnc1C(c1cc(OC)ccc1OC)N1CCN(Cc2ccccc2)CC1 (stereo not drawn),"inconclusive: 31.6 µM [fluorescent, side channel, single point]",–
CO[C@@]1(NC(=O)CSCC#N)C(=O)N2C(C(=O)O)=C(CSc3nnnn3C)CS[C@@H]21,inactive,–
CCCCCCc1ccc(N2C[C@H](Cc3ccccc3)[C@@H](CC(=O)NCc3ccc(OC)cc3)C2=O)cc1,"inconclusive: 2.82 µM [fluorescent, side channel, partial curve]",–
CC(C)[C@H](NC(=O)c1cccc(S(=O)(=O)N2CCCC2)c1)c1nc2ccccc2[nH]1,"inconclusive: 35.5 µM [inhibitor, partial curve]",–
O=C(CN1CCCCCC1)NC(c1ccccc1)c1ccccc1,"inconclusive: 39.8 µM [inhibitor, single point]",–
COC(=O)C1CN(C(=O)C(C)Oc2cc(C)ccc2C(C)C)c2ccccc2O1 (stereo not drawn),"inconclusive: 1.41 µM [inhibitor, full curve, poor fit]",–
Cc1ccccc1NC(=S)N(Cc1cccnc1)Cc1ccco1,"inconclusive: 20 µM [fluorescent, side channel, partial curve]",–
Cc1ccc(NC(=O)CN(C)C(=O)c2n[nH]c(=O)c3ccccc23)cc1,"inconclusive: 17.8 µM [inhibitor, partial curve]",–
CC(C)(C)c1ccc(COn2c(=O)c(-c3ccco3)[n+]([O-])c3ccccc32)cc1,"inconclusive: 25.1 µM [quencher, side channel, single point]",–
Oc1ccc(/C=N/N2CCCCC2)cc1O,"inconclusive: 35.5 µM [quencher, side channel, single point]",–
O=C(c1ccccc1)c1ccc2nc(-c3ccco3)c(-c3ccco3)nc2c1,"inconclusive: 12.6 µM [quencher, side channel, partial curve]",–
O=C(/C=C/c1ccco1)NC(=S)Nc1cccc([N+](=O)[O-])c1,"inconclusive: 12.6 µM [quencher, side channel, partial curve]",–
CSc1ccc(/C=C(/NC(=O)c2ccco2)C(=O)N2CCCCCC2)cc1,"inconclusive: 2.82 µM [fluorescent, side channel, full curve]",–
CCCC1C(=O)Nc2ccccc2N1C(=O)c1ccc(C(C)(C)C)cc1 (stereo not drawn),"inconclusive: 7.08 µM [fluorescent, side channel, partial curve]",–
N#Cc1c2n(c3c(=O)n(Cc4ccc(Cl)cc4)cnc13)CCCCC2,"inconclusive: 2.82 µM [inhibitor, full curve, poor fit]",–
O=C(Nc1cc([N+](=O)[O-])ccc1O)c1cccc([N+](=O)[O-])c1,–,inactive: 4.35%
Cc1nn(-c2ccccc2)c(N2CCCC2)c1/C=N/NC(=O)c1cc2ccccc2cc1O,"inconclusive: 17.8 µM [quencher, side channel, partial curve]",–
O=C(O)c1cc(N/N=C/c2ccc(-c3ccc(F)cc3)o2)ccc1Cl,"inconclusive: 22.4 µM [quencher, side channel, partial curve]",–
CC(=NCCCn1ccnc1)c1c(C)[nH]n(-c2ccc([N+](=O)[O-])cc2)c1=O,–,inactive: 20.6%
CC[C@@H](C)[C@H]1O[C@]2(CC[C@@H]1C)C[C@@H]1C[C@@H](C/C=C(\C)[C@@H](O[C@H]3C[C@H](OC)[C@@H](O[C@H]4C[C@H](OC)[C@@H](O)[C@H](C)O4)[C@H](C)O3)[C@@H](C)/C=C/C=C3\CO[C@@H]4[C@H](O)C(C)=C[C@@H](C(=O)O1)[C@]34O)O2,"inconclusive: 3.55 µM [fluorescent, side channel, full curve]",–
N#Cc1c(NCCCO)nc(-c2ccco2)c2c1CCCC2,–,inactive: 0.277%
COc1ccc(O)c(/C=N/NC(=O)c2ccc(OCc3cccc(Br)c3)cc2)c1,"inconclusive: 2.82 µM [quencher, side channel, full curve]",–
Cc1cc(C(C)(C)C)oc1C(=O)N(CC(=O)NC1CCCC1)Cc1ccc(F)cc1,"inconclusive: 15.8 µM [fluorescent, side channel, partial curve]",–
Cc1nnc(SCc2ccc(Cl)cc2)nc1/C=C/N(C)C,"inconclusive: 31.6 µM [quencher, side channel, single point]",–
COc1cc(/C=N/NC(=O)c2cccnc2)ccc1OC(=O)c1ccc2c(c1)OCO2,"inconclusive: 39.8 µM [fluorescent, side channel, single point]",–
